Laboratory results from paper PMC10657792, “Downstream Allosteric Modulation of NMDA Receptors by 3-Benzazepine Derivatives” (Molecular Neurobiology, 2023).
This continues a long series; more values of the same kind are listed elsewhere.

Columns and labels:
GluN1a wt/ GluN2B wt = GluN1a wt/ GluN2B wt (Rattus norvegicus, UniProt P35439+Q00960); experiment: TEVC recording in X. laevis oocytes in the presence of agonists and 200 µM spermine; type: cell-based; settings: agonists + 200 µM spermine; fitted curve
Chain of GluN1a wt/ GluN2B wt (Q00960 27-1482, other chains not shown): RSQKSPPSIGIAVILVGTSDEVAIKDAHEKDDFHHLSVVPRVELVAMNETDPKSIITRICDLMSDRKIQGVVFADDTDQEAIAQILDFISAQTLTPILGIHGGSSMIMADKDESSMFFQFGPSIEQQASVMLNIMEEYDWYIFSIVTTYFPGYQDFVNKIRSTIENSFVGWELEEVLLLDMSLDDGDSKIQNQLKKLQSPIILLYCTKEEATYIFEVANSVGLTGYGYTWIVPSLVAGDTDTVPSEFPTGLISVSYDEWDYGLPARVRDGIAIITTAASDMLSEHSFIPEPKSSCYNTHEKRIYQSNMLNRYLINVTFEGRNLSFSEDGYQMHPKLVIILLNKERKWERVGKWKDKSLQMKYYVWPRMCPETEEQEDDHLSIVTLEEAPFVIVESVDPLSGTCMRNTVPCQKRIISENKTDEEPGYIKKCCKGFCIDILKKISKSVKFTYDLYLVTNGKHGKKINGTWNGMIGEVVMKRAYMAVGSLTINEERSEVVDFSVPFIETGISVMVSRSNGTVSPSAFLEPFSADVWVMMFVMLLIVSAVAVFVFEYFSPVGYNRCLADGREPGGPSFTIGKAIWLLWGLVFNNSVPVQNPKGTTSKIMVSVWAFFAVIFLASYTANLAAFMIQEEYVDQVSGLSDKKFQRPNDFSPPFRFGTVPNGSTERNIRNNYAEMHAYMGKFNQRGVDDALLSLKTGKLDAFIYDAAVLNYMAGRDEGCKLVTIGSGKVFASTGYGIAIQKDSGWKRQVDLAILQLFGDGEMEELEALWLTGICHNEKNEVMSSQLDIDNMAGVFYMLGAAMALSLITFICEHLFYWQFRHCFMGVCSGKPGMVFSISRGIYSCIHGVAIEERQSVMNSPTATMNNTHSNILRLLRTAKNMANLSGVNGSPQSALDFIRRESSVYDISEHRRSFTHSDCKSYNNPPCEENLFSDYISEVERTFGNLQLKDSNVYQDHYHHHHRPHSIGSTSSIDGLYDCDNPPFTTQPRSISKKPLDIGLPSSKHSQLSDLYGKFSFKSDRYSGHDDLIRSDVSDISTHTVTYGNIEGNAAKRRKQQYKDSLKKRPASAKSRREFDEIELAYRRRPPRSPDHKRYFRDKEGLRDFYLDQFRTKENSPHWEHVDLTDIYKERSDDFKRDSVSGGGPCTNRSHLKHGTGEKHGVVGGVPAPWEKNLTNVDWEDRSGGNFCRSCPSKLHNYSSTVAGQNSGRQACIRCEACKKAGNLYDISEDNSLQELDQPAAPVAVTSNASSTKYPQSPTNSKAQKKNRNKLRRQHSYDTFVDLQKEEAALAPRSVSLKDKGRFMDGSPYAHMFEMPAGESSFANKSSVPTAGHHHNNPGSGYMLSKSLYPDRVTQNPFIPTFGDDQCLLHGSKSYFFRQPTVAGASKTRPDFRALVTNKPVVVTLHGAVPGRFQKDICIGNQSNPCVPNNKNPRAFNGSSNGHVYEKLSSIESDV
Experimental: (§1) The NMDAR was expressed in stage V and VI oocytes originated from X. laevis. Oocytes were provided by Ecocyte Bioscience (Dortmund, Germany), and equimolar amounts of wild-type and mutated GluN1 and GluN2B cRNA were injected (0.8 ng each). The oocytes were incubated in Barth’s solution, containing (mmol l^−1): 88 NaCl, 1 KCl, 0.4 CaCl2, 0.33 Ca(NO3)2, 0.6 MgSO4, 5 TRIS–HCl, 2.4 NaHCO3, supplemented with 80 mg l^−1 theophylline, 63 mg l^−1 benzylpenicillin, 40 mg l^−1 streptomycin, and 100 mg l^−1 gentamycin and maintained at 18 °C until usage. After injection, the oocytes were incubated for 5 days at 18 °C. Subsequently, the activity of the expressed NMDARs in the oocytes was recorded by two-electrode voltage clamp (TEVC).
(§2) The compounds were retrieved as 10 mM stock solutions in DMSO and were subsequently diluted with agonist solution and adjusted to 0.1% DMSO concentration. Inhibition of each compound was measured via TEVC in X. laevis oocytes at room temperature using a Turbo Tec 10CX amplifier (NPI electronic, Tamm, Germany), NI USB 6221 DA/AD Interface (National Instruments, Austin, USA), and GePulse Software (Dr. Michael Pusch, Genova, Italy). Ba^2+-Ringer, consisting of 10 mM HEPES, 90 mM NaCl, 1 mM KCl, and 1.5 mM BaCl2, adjusted to pH 7.4, was used for TEVC measurements. […] Example traces for all recorded conditions can be found in Supplementary Figs. S2–S9. […]

GluN1b wt/ GluN2B wt = GluN1b wt/ GluN2B wt (Rattus norvegicus, UniProt P35439+Q00960); experiment: as above; type: cell-based; settings: agonists + 200 µM spermine; fitted curve
Chain of GluN1b wt/ GluN2B wt (Q00960 27-1482, other chains not shown): as above
Experimental: as §1, §2

Oc1ccc2c(c1)CCN(CCCCc1ccccc1F)C[C@@H]2O [(R)-OF-NB1]
A2 (level of maximal inhibition) (GluN1a wt/ GluN2B wt): 89.1% | A2 (level of maximal inhibition) (GluN1b wt/ GluN2B wt): 83.8%
